Molecules are shown by their SMILES. For part of these data: What follows is the remainder of the data, with few or none of the strong results. The list shows a part of the results, in another mix than the full data.

The term inhibition denotes the relative decrease from the control value, in per cent.

In experiment [1] the target is 5'-AMP-activated protein kinase catalytic subunit alpha-2 (Homo sapiens) (UniProt P54646). The following applies: at 1 µM.
In experiment [2] the target is T1, NUAK family SNF1-like kinase 1 (Homo sapiens) (UniProt O60285).
T1 sequence (whole entry): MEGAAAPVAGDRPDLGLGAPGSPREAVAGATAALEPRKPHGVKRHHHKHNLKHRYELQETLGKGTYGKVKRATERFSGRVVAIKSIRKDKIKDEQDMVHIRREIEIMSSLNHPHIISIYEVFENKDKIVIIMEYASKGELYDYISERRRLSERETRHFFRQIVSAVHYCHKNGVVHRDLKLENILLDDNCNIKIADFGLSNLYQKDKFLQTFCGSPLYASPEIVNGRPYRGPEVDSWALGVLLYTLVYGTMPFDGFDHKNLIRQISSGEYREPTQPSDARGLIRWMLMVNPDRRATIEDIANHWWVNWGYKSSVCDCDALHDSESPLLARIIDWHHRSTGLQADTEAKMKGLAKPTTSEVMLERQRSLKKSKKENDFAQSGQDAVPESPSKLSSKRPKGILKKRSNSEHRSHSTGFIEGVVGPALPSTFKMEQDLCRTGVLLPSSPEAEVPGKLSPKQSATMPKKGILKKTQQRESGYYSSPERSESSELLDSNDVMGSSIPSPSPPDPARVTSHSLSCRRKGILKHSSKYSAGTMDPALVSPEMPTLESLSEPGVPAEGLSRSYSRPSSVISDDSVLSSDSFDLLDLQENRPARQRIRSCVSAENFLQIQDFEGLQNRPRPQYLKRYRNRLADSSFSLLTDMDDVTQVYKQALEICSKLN
The following applies: at 0.1 µM.

The target of experiment [3] is T1, NUAK family SNF1-like kinase 1 (Homo sapiens). To be noted: at 1 µM.
Experiment [4] deals with T2, Serine/threonine-protein kinase BRSK1 (Homo sapiens) (UniProt Q8TDC3).
T2 sequence (whole entry): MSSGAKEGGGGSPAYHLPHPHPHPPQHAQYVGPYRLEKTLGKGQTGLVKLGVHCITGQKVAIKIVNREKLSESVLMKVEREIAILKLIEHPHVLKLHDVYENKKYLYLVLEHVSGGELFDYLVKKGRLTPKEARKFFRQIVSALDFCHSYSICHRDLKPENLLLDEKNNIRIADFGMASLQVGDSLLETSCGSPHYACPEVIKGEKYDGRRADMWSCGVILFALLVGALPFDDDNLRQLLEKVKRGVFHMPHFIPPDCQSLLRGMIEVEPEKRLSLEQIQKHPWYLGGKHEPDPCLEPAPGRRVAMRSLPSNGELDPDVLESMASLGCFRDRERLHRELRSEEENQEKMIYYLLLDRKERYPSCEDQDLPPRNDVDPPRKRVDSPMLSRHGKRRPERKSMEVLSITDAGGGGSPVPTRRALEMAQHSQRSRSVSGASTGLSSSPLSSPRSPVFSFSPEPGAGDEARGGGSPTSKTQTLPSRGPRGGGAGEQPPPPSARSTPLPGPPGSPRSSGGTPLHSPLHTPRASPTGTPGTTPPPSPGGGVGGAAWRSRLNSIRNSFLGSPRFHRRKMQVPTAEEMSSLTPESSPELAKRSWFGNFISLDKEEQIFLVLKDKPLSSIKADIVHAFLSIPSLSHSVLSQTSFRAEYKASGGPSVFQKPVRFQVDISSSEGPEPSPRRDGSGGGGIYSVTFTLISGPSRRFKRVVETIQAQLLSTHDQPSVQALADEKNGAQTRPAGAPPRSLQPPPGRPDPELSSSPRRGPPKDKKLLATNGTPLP
The following applies: at 0.1 µM.

For experiment [5], the target named is T2, Serine/threonine-protein kinase BRSK1 (Homo sapiens). To be noted: at 1 µM.
For experiment [6], the target named is T3, Serine/threonine-protein kinase BRSK2 (Homo sapiens) (UniProt Q8IWQ3).
T3 sequence (whole entry): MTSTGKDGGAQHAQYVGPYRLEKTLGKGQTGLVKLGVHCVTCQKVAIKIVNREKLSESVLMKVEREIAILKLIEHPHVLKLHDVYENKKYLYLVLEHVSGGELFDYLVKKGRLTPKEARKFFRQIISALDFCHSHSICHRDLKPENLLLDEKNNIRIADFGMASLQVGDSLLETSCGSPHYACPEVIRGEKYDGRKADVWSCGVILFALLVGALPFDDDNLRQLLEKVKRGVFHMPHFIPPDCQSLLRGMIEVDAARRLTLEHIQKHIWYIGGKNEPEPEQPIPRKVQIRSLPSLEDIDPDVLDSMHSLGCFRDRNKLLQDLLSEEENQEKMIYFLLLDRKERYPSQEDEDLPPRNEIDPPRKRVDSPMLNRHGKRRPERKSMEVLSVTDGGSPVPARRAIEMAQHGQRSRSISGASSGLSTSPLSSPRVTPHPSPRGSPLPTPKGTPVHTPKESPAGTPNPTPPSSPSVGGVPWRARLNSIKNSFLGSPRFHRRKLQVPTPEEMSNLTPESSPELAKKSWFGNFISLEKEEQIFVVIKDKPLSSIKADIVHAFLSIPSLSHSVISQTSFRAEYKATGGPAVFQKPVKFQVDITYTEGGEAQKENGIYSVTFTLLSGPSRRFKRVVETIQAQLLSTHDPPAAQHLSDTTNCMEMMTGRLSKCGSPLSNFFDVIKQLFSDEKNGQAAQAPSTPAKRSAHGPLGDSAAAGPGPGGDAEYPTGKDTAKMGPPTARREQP
The following applies: at 0.1 µM.

For experiment [7], the target named is T3, Serine/threonine-protein kinase BRSK2 (Homo sapiens). To be noted: at 1 µM.
Experiment [8] has as its target Calcium/calmodulin-dependent protein kinase type 1D (Homo sapiens) (UniProt Q8IU85). The following applies: at 0.1 µM.
UniProt Q8IU85, sequence (Q8IU85 whole entry, looked up): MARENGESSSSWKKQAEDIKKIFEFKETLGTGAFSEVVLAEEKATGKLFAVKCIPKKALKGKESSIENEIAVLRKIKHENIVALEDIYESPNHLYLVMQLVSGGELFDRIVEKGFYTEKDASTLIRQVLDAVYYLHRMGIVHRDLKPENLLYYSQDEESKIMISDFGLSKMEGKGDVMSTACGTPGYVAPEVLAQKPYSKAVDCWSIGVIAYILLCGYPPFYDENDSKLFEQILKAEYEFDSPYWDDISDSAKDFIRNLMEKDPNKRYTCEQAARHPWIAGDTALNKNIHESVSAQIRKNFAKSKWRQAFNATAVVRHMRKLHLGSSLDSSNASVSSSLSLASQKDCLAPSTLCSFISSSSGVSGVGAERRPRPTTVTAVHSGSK
Experiment [9] shares this target. To be noted: at 1 µM.
In experiment [10] the target is Calcium/calmodulin-dependent protein kinase type II subunit alpha (Homo sapiens) (UniProt Q9UQM7). To be noted: at 0.1 µM.
UniProt Q9UQM7, sequence (Q9UQM7 whole entry): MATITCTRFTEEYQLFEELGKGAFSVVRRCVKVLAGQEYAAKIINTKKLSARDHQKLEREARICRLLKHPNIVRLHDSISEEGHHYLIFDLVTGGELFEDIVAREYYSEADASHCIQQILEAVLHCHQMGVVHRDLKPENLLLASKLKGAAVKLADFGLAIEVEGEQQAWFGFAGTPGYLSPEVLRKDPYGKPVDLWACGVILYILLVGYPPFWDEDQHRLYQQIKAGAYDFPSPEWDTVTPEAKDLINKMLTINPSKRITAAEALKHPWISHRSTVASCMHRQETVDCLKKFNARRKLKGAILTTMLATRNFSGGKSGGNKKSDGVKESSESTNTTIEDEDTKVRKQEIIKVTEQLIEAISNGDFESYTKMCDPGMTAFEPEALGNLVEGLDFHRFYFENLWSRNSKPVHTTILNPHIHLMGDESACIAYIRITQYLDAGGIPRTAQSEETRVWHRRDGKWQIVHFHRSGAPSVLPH
For experiment [11] the target is unchanged. To be noted: at 1 µM.
Experiment [12] addresses Calcium/calmodulin-dependent protein kinase type II subunit delta (Homo sapiens) (UniProt Q13557). The following applies: at 0.1 µM.
UniProt Q13557, sequence (Q13557 whole entry): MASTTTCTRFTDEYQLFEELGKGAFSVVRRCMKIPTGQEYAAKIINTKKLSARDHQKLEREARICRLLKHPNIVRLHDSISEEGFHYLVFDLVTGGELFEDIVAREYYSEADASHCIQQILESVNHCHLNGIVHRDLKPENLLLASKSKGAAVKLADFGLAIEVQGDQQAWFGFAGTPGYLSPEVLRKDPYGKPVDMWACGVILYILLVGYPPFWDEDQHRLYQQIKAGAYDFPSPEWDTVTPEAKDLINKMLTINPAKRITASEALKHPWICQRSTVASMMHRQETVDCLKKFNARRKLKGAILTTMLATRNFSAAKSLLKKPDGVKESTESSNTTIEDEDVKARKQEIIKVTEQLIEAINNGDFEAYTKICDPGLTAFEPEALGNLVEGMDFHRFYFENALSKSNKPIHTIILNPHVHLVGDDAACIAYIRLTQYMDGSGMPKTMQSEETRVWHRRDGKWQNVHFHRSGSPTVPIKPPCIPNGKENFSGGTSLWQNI
Experiment [13] has the same target. The following applies: at 1 µM.
For experiment [14], the target named is T4, Calcium/calmodulin-dependent protein kinase type IV (Homo sapiens) (UniProt Q16566).
T4 sequence (whole entry): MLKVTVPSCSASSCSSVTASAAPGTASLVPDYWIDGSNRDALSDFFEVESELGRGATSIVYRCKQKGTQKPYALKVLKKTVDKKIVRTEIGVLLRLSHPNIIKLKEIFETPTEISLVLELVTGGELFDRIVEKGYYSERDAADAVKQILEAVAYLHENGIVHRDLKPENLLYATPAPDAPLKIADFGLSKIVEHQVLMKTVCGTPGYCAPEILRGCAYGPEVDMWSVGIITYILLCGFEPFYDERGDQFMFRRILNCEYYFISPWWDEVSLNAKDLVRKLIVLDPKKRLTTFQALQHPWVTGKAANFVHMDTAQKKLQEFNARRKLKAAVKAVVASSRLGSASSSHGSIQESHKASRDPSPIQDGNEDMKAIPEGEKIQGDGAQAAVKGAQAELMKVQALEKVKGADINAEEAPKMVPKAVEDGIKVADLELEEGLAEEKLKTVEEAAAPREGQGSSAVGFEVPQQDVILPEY
The following applies: at 0.1 µM.

The target of experiment [15] is T4, Calcium/calmodulin-dependent protein kinase type IV (Homo sapiens). The following applies: at 1 µM.
For experiment [16], the target named is T5, Serine/threonine-protein kinase Chk1 (Homo sapiens) (UniProt O14757).
T5 sequence (whole entry): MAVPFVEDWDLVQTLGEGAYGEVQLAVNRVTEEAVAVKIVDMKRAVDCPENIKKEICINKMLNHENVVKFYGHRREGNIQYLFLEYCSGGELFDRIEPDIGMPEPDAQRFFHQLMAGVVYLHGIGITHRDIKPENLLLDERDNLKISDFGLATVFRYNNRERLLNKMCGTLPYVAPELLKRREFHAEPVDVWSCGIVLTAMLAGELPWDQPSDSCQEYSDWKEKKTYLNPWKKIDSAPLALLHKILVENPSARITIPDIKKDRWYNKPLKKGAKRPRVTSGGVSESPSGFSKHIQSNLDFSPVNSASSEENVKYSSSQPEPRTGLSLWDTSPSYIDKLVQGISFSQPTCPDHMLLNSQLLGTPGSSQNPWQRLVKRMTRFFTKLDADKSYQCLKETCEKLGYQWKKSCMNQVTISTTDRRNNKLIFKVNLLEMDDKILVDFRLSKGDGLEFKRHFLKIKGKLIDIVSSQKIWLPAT
To be noted: at 0.1 µM.

Experiment [17] has as its target T5, Serine/threonine-protein kinase Chk1 (Homo sapiens). To be noted: at 1 µM.
Experiment [18] has as its target Serine/threonine-protein kinase Chk2 (Homo sapiens) (UniProt O96017). The following applies: at 0.1 µM.
UniProt O96017, sequence (O96017 whole entry): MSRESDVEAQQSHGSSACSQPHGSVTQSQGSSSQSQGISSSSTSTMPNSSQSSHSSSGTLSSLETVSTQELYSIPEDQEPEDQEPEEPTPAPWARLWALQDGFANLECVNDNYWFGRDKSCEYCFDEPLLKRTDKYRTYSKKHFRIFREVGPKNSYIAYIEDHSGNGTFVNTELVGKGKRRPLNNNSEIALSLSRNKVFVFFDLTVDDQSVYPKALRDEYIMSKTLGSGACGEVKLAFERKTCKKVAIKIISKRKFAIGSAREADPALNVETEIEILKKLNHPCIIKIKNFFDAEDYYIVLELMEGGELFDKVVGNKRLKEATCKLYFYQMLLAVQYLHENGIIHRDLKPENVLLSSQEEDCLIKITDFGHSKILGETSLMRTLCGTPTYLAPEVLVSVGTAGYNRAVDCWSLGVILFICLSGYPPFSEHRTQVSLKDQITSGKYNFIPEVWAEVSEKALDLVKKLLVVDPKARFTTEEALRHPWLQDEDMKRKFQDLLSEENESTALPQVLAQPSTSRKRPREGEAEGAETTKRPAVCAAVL
The target is the same in experiment [19]. The following applies: at 1 µM.
The target in experiment [20] is Death-associated protein kinase 1 (Homo sapiens) (UniProt P53355). The following applies: at 0.1 µM.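 Note: reported figure is the mean inhibition of DAPK1.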
UniProt P53355, sequence (P53355 whole entry, looked up): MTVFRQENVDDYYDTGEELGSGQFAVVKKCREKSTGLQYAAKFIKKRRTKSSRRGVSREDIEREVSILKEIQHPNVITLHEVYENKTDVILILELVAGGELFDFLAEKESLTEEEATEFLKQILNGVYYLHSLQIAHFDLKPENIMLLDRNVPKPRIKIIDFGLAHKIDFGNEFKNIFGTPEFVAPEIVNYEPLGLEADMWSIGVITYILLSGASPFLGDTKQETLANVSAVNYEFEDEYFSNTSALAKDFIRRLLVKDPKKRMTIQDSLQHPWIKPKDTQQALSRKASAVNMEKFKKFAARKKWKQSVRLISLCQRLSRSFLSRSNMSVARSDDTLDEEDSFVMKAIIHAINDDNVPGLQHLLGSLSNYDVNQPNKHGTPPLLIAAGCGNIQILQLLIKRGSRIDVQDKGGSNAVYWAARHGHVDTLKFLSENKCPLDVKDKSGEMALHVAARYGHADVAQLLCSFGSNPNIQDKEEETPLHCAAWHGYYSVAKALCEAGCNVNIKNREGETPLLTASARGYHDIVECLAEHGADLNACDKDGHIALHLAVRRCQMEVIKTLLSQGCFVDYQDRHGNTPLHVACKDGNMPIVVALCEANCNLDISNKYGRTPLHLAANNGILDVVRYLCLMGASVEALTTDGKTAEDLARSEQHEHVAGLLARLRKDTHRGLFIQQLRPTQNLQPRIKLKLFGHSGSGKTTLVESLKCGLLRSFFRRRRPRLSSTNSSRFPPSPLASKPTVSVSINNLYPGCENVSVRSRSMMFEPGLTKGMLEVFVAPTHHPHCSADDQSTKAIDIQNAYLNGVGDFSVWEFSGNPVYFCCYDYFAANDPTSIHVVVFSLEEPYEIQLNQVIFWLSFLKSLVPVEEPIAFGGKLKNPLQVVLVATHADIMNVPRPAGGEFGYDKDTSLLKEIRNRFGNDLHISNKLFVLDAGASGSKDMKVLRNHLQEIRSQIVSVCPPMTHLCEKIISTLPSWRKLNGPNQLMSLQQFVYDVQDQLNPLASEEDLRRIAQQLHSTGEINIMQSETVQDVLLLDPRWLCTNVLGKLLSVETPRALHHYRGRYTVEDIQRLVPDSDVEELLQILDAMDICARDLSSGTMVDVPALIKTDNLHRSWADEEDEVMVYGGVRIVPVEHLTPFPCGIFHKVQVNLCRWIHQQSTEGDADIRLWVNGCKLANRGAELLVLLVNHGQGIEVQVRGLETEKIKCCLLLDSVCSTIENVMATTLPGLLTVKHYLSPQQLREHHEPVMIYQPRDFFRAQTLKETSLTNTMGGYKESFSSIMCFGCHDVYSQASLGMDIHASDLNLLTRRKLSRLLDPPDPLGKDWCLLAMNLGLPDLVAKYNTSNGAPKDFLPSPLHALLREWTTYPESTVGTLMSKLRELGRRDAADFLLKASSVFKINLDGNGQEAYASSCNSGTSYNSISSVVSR

UniProt P54646, sequence (P54646 whole entry, looked up): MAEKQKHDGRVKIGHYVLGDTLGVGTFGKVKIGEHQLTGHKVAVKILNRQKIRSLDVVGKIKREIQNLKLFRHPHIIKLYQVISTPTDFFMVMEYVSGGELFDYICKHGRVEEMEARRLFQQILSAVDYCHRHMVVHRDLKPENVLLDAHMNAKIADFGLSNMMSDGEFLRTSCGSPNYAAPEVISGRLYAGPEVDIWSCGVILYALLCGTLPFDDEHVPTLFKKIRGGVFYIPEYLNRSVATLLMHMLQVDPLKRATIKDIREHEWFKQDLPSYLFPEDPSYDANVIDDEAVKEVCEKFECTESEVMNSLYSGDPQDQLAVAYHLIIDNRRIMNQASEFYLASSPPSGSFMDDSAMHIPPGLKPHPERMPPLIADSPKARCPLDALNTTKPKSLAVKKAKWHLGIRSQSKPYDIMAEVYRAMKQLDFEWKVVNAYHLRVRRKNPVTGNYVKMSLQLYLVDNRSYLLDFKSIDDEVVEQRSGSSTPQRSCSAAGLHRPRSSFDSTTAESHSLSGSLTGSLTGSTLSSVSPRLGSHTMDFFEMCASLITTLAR

On to `CS(=O)(=O)c1ccc(Oc2nccc(-c3c(-c4ccc(F)cc4)ncn3C3CCNCC3)n2)cc1`, for which the inhibition in [1] was 3.41%; in experiment [2] it was -2.66%; in [3], 0.2%; in experiment [4], -2.87%; in [5] it was 2.13%; in experiment [6], 0.61%. In addition, the inhibition was 1.12% in experiment [7]; 1.28% in [8]; 5.26% in [9]; 2.1% in experiment [10]; 0.65% in experiment [11]; 2.72% in [12]. Moreover, the inhibition in experiment [13] was 3.76%; in [14], -1.06%; in experiment [15] it was 6.78%; in [16], 2.78%; in experiment [17], -2.07%; in experiment [18], 4.28%. The inhibition in experiment [19] is 3.7%; in experiment [20], 1.95%.

Take `NC(=O)CCc1ccccc1Oc1nccc(-c2c(-c3ccc(F)cc3)ncn2C2CCNCC2)n1`: the inhibition in [1] is -2.91%; in experiment [2], 2.41%; in experiment [3] it was 2.23%; in experiment [4], 0.42%; in [5], -0.65%; in experiment [6], -0.46%. The inhibition in [7] is 1.55%; in [8], -0.35%; in experiment [9], 0.73%; in [10], -3.28%; in experiment [11] it was -3.23%; in experiment [12], -2.69%. The inhibition in experiment [13] is 0.02%; in [14] it was -1.83%; in experiment [15], -0.87%; in experiment [16], 0.82%; in experiment [17], 1.57%; in experiment [18] it was -3.67%. Moreover, the inhibition in [19] is -2.84%; in experiment [20], 0.92%.

Regarding `COc1ccccc1Oc1nccc(-c2c(-c3ccc(F)cc3)ncn2C2CCNCC2)n1`, the inhibition in experiment [1] is 7.3%; in [2], 4.09%; in experiment [3] it was 5.84%; in [4], 1.06%; in experiment [5], 5.48%; in experiment [6] it was 4.98%. The inhibition was 8.17% in experiment [7]; -0.13% in experiment [8]; 0.27% in experiment [9]; 2.09% in experiment [10]; -0.4% in experiment [11]; 2.24% in experiment [12]. Besides, the inhibition is 4.36% in experiment [13]; 0.41% in experiment [14]; 0.33% in experiment [15]; -4.32% in [16]; -0.09% in [17]; -2.71% in [18]. Besides, the figures for the inhibition in [19] and in experiment [20] were -3.24% and -3.82%, respectively.
